# Among all 43,000 compounds or so, about 200 (0.47%) were called active. Not shown: some 12% with an inconclusive outcome. Calls come from the whole dose curve; as a rule, active = well fitted cell-killing curve with a large enough effect; inconclusive = small, poorly fitted or top-dose-only effect, or effect the other way; inactive = flat fitted curve, though single readings scatter. This is one part of the list.
# Assay: Cell viability qHTS assay in S16 Pmp22-F2sN cells; note: nearly all actives have a fitted effect of over 65% in size
# Details: S16 Pmp22-F2sN Schwann cells (luciferase reporters placed in the Pmp22 gene) viability, CellTiter-Glo, 24 h; series mostly up to 57.5 µM; activity change, negative = cytotoxicity: at the top concentration
# Method in brief: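 S16 Schwann cells carrying the Pmp22-F2sN reporter, seeded in 1536-well format, were exposed to library compounds for 24 h at 37C. Viability was read as CellTiter-Glo luminescence after 15 min at room temperature.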
# % is set by controls: 0 for no effect and ±100 for the full control effect.
row,SMILES,"activity change, negative = cytotoxicity"
1,CCN(CC)C(=O)Cn1c(=O)n(Cc2ccc(C(=O)NCCCOC)cc2)c(=O)c2ccccc21,inactive: -0.816%
2,O=C(Nc1ccc(F)cc1F)c1cc(S(=O)(=O)N2CCCCC2)c[nH]1,inactive: -18.2%
3,Cc1ccc(C)c(N2C(=O)N(Cc3cccc(C(F)(F)F)c3)c3ccccc3S2(=O)=O)c1,inactive: 7%
4,NS(=O)(=O)c1ccc(NC(=O)COc2ccc(S(=O)(=O)NC3CCCCC3)cc2)cc1,inactive: 17.5%
5,CCOC(=O)CSc1nc2cc(OC)c(OC)cc2c2nc(-c3ccccc3)nn12,inactive: 1.55%
6,COC(=O)c1sccc1S(=O)(=O)N(CC(=O)NCc1ccc(C)cc1)c1ccc(C)c(C)c1,inactive: -7.33%
7,Cc1cc(NC(=O)c2cc(Cl)ccc2Cl)ccc1-c1cc2ccccc2oc1=O,inactive: -2.45%
8,CCOC(=O)C1=C(C)N=C2SCCC(=O)N2C1c1ccc(OCc2ccccc2)c(OC)c1 (stereo not drawn),inactive: 12.5%
9,CC(=O)c1c(C)oc2c1cc(NS(=O)(=O)c1c(C)cc(C)cc1C)c1ccccc12,inactive: 7.18%
10,CCN(CC)CCCNC(=O)c1cn(CC(C)C)c(=O)c2c1c1ccccc1n2C,inactive: 3.85%
11,COc1ccc(-c2nnc(SCC(=O)N3CCc4ccccc43)o2)cc1OC,inactive: -3.13%
12,Cc1ccc2nc(-c3ccsc3)c(Nc3ccc(Cl)cc3)n2c1,inactive: -4.83%
13,Cc1cccc(-c2noc(-c3ccccc3OCC(=O)Nc3ccccc3[N+](=O)[O-])n2)c1,inactive: 11.2%
14,Cc1ccn2cc(CNC(=O)c3cccc(C(F)(F)F)c3)nc2c1,inactive: 18.9%
15,COc1ccc(OCC(=O)N(Cc2sccc2C)C2CCS(=O)(=O)C2)cc1 (stereo not drawn),inactive: -0.155%
16,CC(=O)c1cccc(NC(=O)[C@H]2O[C@@H]3OC(C)(C)O[C@@H]3[C@H]3OC(C)(C)O[C@H]32)c1,inactive: 11.2%
17,COc1ccc(-c2nc3scc(CCNS(=O)(=O)c4ccc(Oc5ccccc5)cc4)n3n2)cc1,inactive: -7.43%
18,CCN(CC)c1ccc(C2C(C(=O)Nc3ccccc3C)=C(C)Nc3ncnn32)cc1 (stereo not drawn),inactive: -0.845%
19,COC(=O)CCCCCn1c(-c2ccccc2)cn2c3c(=O)n(C)c(=O)n(C)c3nc12,inactive: -6.91%
20,O=C(NCc1ccccc1Cl)c1c2c(nc3ccccc13)C(=O)N(C1CCCCC1)C2,inactive: -27.6%
21,CCN(Cc1ccccc1)Cc1c(O)ccc2c(=O)c(-c3ccc(Cl)cc3)c(C(F)(F)F)oc12,inactive: -0.237%
22,COc1ccc(OC)c(C(=O)CSc2ncc3c(n2)-c2ccccc2N(Cc2ccccc2C)S3(=O)=O)c1,inactive: -19.3%
23,Cc1ccn2c(=O)cc(CSc3nnc(C)s3)nc2c1,inactive: -5.31%
24,Cc1cc2c(cc1NC(=O)c1ccccc1Cl)n(C)c(=O)c(=O)n2C,inactive: 19.9%

row,SMILES,"activity change, negative = cytotoxicity"
1,Cc1cccc(CCn2c(=O)c3ccccc3n(CC(=O)Nc3ccccc3F)c2=O)c1,inactive: 24.7%
2,COCCNC(=O)CCc1c(C)n(C)c2cc(-c3cc(OC)c(OC)c(OC)c3)nn2c1=O,inactive: 18%
3,CC1CCN(S(=O)(=O)c2ccc3nc(NCc4ccccc4)ccc3c2)CC1,inactive: -29.3%
4,COc1ccc(C(CNC(=O)c2oc3cc(C)c(Cl)cc3c2C)N2CCCCC2)cc1 (stereo not drawn),inactive: 4.49%
5,Cn1c(=O)c(=O)n(C)c2cc(C(=O)NCc3ccccc3Cl)ccc21,inactive: 4.35%
6,COC(=O)c1scc(-c2ccc(C)cc2)c1S(=O)(=O)N1CCN(c2ccc(C)cc2C)CC1,inactive: -1.13%
7,COc1ccc(C(=O)NCc2ccc3c(c2)CCN3C(=O)c2ccccc2)cc1,inactive: 3.67%
8,CCc1ccc2oc(-c3ccc(NC(=O)c4cc5ccccc5o4)cc3)nc2c1,inactive: 7.74%
9,CCCNC(=O)CCCN1C(=O)CCn2nc(-c3cccn3C)cc21,inactive: -5.64%
10,COCCCNC(=O)c1sc2nc(C)c(C(=O)Nc3ccc(C)cc3C)c(-c3ccccc3Cl)c2c1N,inactive: -29.1%
11,COCCNC(=O)c1nn(-c2ccc(C)cc2)c(=O)n(C)c1=O,inactive: -0.143%
12,COc1ccc(NS(=O)(=O)c2ccc(-c3cnc(C4CC4)o3)cc2)cc1Cl,inactive: -14.5%
13,O=C(CCSCc1cnn(-c2ccccc2)c1-n1cccc1)NCc1ccccc1Cl,inactive: -0.239%
14,CCn1c(C(=O)NCc2ccccc2Br)cc2oc3ccccc3c21,inactive: 5.35%
15,CCCn1cnc2cc(NCc3ccccc3OCC)ccc21,inactive: 2.92%
16,COC(=O)c1ccc(C(=O)OC)c(NC(=O)c2cc3nc(-c4ccc(C)cc4)cc(C(F)(F)F)n3n2)c1,inactive: 2.41%
17,CCCNC(=O)Cn1c(=O)c2cccn2c2cccnc21,inactive: 0.183%
18,CCCNC(=O)C1Cc2cc(S(=O)(=O)N3CCCCCC3)ccc2N1C(C)=O (stereo not drawn),inactive: 6.61%
19,Cc1ccccc1OCc1nc2ccccc2n1Cc1ccccc1Cl,inactive: 3.75%
20,COc1ccc(C2=NS(=O)(=O)N(C)C(C(=O)N(C)Cc3ccccc3)=C2)cc1OC,inactive: -5.68%
21,CCS(=O)(=O)N1CCc2cc(C(=O)Nc3cccc(C(C)=O)c3)ccc21,inactive: 0.112%
22,CCCOc1cccc(C2c3c(-c4ccccc4O)n[nH]c3C(=O)N2Cc2ccco2)c1 (stereo not drawn),inactive: -1.94%
23,CC(=O)c1ccc(NC(=O)CSc2cn(CC(=O)N(C(C)C)C(C)C)c3ccccc23)cc1,inactive: -9.87%
24,CCCCn1cc(S(=O)(=O)c2ccc(OC)cc2)c(=O)c2cc(F)c(N3CCOCC3)cc21,inactive: -22.9%

# Source: PubChem BioAssay AID1508642 (National Center for Advancing Translational Sciences (NCATS), 2021)
